# Experimental data as given in the supplement of paper PMC3334620.
# In all, about 33,000 sequences were measured (“E-score (-0.5 to 0.5)”: median about -0.013, highest 2% from about 0.3 on). This is one part of the list.
# Target: T1, Msn1 (UniProt P22148)
# T1 sequence: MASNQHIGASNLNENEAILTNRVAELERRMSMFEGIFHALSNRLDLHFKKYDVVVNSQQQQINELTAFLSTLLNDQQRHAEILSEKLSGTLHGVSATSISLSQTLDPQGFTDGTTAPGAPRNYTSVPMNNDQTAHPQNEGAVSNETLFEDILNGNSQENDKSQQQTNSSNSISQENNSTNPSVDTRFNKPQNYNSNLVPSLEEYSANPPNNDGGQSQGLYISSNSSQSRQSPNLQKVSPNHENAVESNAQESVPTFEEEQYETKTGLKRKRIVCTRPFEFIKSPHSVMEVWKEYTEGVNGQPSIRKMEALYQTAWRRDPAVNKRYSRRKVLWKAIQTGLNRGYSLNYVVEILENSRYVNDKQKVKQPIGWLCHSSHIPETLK
# Assay: PBM E-score (8-mer binding enrichment) (E-score (-0.5 to 0.5)); higher = stronger / more preferred TF binding; most listed sequences are background and not binding sites
# Details: protein concentration: 200 nM; construct: GST-full length
# Method: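 Universal 'all 10-mer' protein binding microarrays (Agilent AMADID 015681) probed with GST-tagged S. cerevisiae TFs (full-length or DBD) made by in vitro transcription/translation (PURExpress), about 100-200 nM. Bound TF was detected with fluorescent anti-GST. Each ungapped 8-mer (which stands for itself and its reverse complement) is scored by the PBM enrichment score (E-score), a modified Wilcoxon-Mann-Whitney statistic from -0.5 to +0.5, computed with the Universal PBM Analysis Suite. Scale: above 0.35 generally sequence-specific binding.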
row,Sequence,PBM E-score
1,AAACGGCA,0.0504
2,ACTAGCGA,0.0418
3,ATACATCA,0.153
4,CAGACATA,0.366
5,CCGCGGAG,-0.0215
6,CCTTCAGC,-0.126
7,CCAAATCG,-0.101
8,ACAATACC,0.205
9,GGGGTACA,0.121
10,CCTCAGAC,-0.0919
11,AACAGGTG,-0.17
12,ACCACATC,-0.0537
13,AACTTTGG,0.016
14,ATGTTGAG,0.0577
15,GCAATTCC,-0.0706
16,AGCAGTAC,-0.0576
17,CTCTCGTA,-0.159
18,ACCACGTC,-0.108
19,ACCGTGAT,0.0644
20,ACCTGACG,-0.11
21,ACCGGGTG,-0.154
22,GCACCCCC,-0.413

row,Sequence,PBM E-score
1,CTGACCAA,0.0777
2,AGCAACCT,-0.21
3,GGGGAACC,-0.423
4,TGGTCACA,0.0752
5,TCGCAACA,0.0181
6,ATTGACCA,-0.0398
7,GATTAGCA,-0.0853
8,CTGCCTCA,-0.275
9,GTTAAACA,0.118
10,CGCTAATA,-0.188
11,AGCCCCGC,-0.0507
12,GATGCCCC,-0.341
13,AAGTGGCA,0.0461
14,AAACAAGT,0.0512
15,CTGGGGCC,-0.384
16,ACTACCGG,-0.166
17,GCAATGGA,-0.0993
18,AGCCGCAT,-0.0442
19,ATGAAAAG,0.0683
20,CTCTAGAC,-0.0491
21,ACATACTA,0.235
22,AACCACCA,-0.189

row,Sequence,PBM E-score
1,AACGCTTC,-0.00759
2,ACCGCGGG,-0.0237
3,CTAAAGAA,0.0225
4,ATATGACG,0.158
5,CATCTCGG,0.066
6,AGAGCCAG,-0.282
7,AAATCGTC,0.0939
8,ACCACAGA,0.0742
9,CACCATTA,0.0979
10,ACTGCTTA,-0.114
11,CCTTGATA,0.0964
12,ATTGCACC,-0.0985
13,ATCTAGCA,0.0323
14,GGCGCTTA,-0.299
15,ATATTAAT,0.243
16,AGCGCTTA,0.0118
17,ATGTGAAC,-0.0349
18,ACGACAAC,0.227
19,TAAATTAA,0.172
20,GTTGACTA,-0.183
21,GCCTTGGA,0.0275
22,AACTCTCT,-0.0871

row,Sequence,PBM E-score
1,ACATGTAA,0.255
2,AAAGTAGG,0.109
3,AGAGGCTG,-0.382
4,CTCAAACA,0.165
5,TAGGCCCA,-0.183
6,ACTGCCCG,-0.0201
7,ATATCTGC,-0.112
8,ACGATAAA,0.0963
9,ACGTCCCT,0.19
10,AGTAGAGG,-0.167
11,TAACTGTA,-0.0885
12,GCCACGAC,-0.0142
13,AGTTACGC,-0.213
14,CTGACCAG,-0.0937
15,AGCGAGAG,0.0105
16,ATAGACGG,-0.0751
17,TAGTATCA,0.182
18,AGGTGATG,-0.14
19,GAAAGGAA,-0.0601
20,CTACATCA,-0.0627
